According to PubChem BioAssay AID1745847 (National Center for Advancing Translational Sciences (NCATS), 2022):
Hit rate of the full screen: of about 2,100 compounds, about 670 (32%) were called active. Inconclusive means that the source gave no clear call. Such entries were picked first, then a sample of the others. Calls follow the shape of the dose curve; as a rule, active = well fitted inhibition curve with a large enough effect; inconclusive = small, poorly fitted or top-dose-only effect; inactive = no such curve, though single readings can be large or run the other way. Where the call is inconclusive, the potency comes from a doubtful curve fit.
% is scaled to controls: 0 for no effect and ±100 for the full control effect; potency is read from the fitted curve at half-maximal effect; tags tell the direction and shape of the fitted curve.

Test: CMV-Luciferase Counterscreen for Inhibitors of ATXN expression; also: nearly all actives have a fitted effect of over 55% in size
Settings: HEK-293 CMV-luciferase reporter, luminescence, 24 h; series mostly up to 57.5 µM
In the case of `S=C(NCc1cccnc1)Nc1ccc(Oc2ccc(Cl)cc2)cc1`, the Potency is reported as active: 10 µM.
For `Cc1ccc2cc(C#N)c(N3CCN(C(=O)c4ccccc4)CC3)nc2c1`, the Potency was inconclusive: 28.2 µM [inhibitor, single point].
With `CCN1C(=O)C(CC(=O)Nc2ccc(OC)cc2)N(CCc2ccc(F)cc2)C1=S` (centres undefined) the Potency was inconclusive: 8.91 µM [inhibitor, single point].
For `CC(=O)c1c(C)oc2ccc(N(C(C)=O)S(=O)(=O)c3cccc4cccnc34)cc12`, the Potency was inconclusive: 7.94 µM [inhibitor, full curve].
With `CC1(C)Cc2c(sc(NC(=O)c3ccc(C(=O)c4ccccc4)cc3)c2C(N)=O)C(C)(C)N1` the Potency was inconclusive: 35.5 µM [inhibitor, single point].
For `CCCCSc1nc(C)cc(SCC(=O)N/N=C/c2cccc(OC)c2O)n1`, the Potency was active: 1 µM.
For `CC(C)C(=O)NC(c1ccccc1)c1cc([N+](=O)[O-])c2cccnc2c1O` (centres undefined), the Potency was inconclusive: 3.16 µM [inhibitor, full curve, poor fit].
For `Cc1ccc(C)c(OCCCC(=O)Nc2nccs2)c1`, the Potency was “inactive”.
In the case of `Cc1cc(C2=NNC(=NC3CC3)SC2)c(C)n1-c1ccccc1F`, the Potency is reported as active: 0.631 µM.
With `Cc1cc(C)cc(NC(=O)/C(C#N)=C/c2cn(CC(=O)NCc3ccco3)c3ccccc23)c1` the Potency was inconclusive: 3.16 µM [inhibitor, single point].
In the case of `Cc1c(N=C2N=C(NC(=O)c3ccc(F)cc3)c3ccccc32)c(=O)n(-c2ccccc2)n1C`, the Potency is reported as inconclusive: 6.31 µM [inhibitor, single point].
For `CC(=O)c1sc(NC(=O)c2cc(-c3ccccc3)nn2-c2ccccc2)nc1C`, the Potency was inconclusive: 8.91 µM [inhibitor, single point].
In the case of `N#Cc1ccccc1NC(=O)C1SC(=Nc2ccccc2)C(C(=O)Nc2ccc(Cl)cc2)=C1N` (centres undefined), the activity change, negative = inhibition is reported as inactive: -20.6% [at 11.4 µM].
In the case of `Cn1cc(C(=O)c2ccc(Cl)cc2Cl)cc1C(=O)N/N=C(\N)COc1ccc(Cl)cc1`, the Potency is reported as inconclusive: 8.91 µM [inhibitor, full curve, poor fit].
In the case of `Cc1noc2ncnc(N3CCN(c4cccc(Cl)c4)CC3)c12`, the Potency is reported as inconclusive: 10 µM [inhibitor, partial curve, poor fit].
With `COc1cccc(/C=N/Nc2ncc(C(F)(F)F)cc2Cl)c1O` the Potency was inconclusive: 2.24 µM [inhibitor, full curve, poor fit].
With `Cc1sc2nc(CN3CCCC3)nc(N3CCC(C(N)=O)CC3)c2c1C` the Potency was “inactive”.
For `COc1ccccc1N1CCN(C(=O)c2cc3c(C)nc4ccccc4c3o2)CC1`, the Potency was inconclusive: 3.55 µM [inhibitor, partial curve, poor fit].
With `CCOC(=O)c1cnc2ccc(OC)cc2c1Nc1ccc(N2CCN(C)CC2)cc1` the Potency was “inactive”.
With `N#Cc1cc2cc3c(cc2nc1SCC(=O)N1CCOCC1)OCCO3` the Potency was inconclusive: 3.98 µM [inhibitor, single point].
With `Cc1cc(C)c2c(CC(=O)Nc3ccc(Cl)cn3)coc2c1` the activity change, negative = inhibition was inactive: 21.1% [at 11.4 µM].
In the case of `Nc1cccc2nc3ccccc3cc12`, the Potency is reported as inconclusive: 4.47 µM [inhibitor, full curve, poor fit].
With `COc1ccc2c(Cl)c(C(=O)NN)sc2c1` the Potency was inconclusive: 3.16 µM [inhibitor, single point].
For `CC(Sc1nnc2c(n1)[nH]c1ccccc12)C(=O)N(C)C1CCCCC1` (centres undefined), the Potency was inconclusive: 6.31 µM [inhibitor, partial curve, poor fit].
In the case of `CNc1ccccc1C(=O)OC(C)C(=O)Nc1ccc(Cl)cn1` (centres undefined), the activity change, negative = inhibition is reported as inactive: 94.6% [at 11.4 µM].
With `Clc1ccc(-c2cc(C3CCNCC3)[nH]n2)c(Cl)c1` the Potency was “inactive”.
For `CC(Oc1ccc(Cl)cc1)C(=O)NNC(=S)NC(=O)c1ccco1` (centres undefined), the Potency was inconclusive: 8.91 µM [inhibitor, partial curve].
In the case of `C/C(=N\NC(=O)C1COc2ccccc2O1)c1ccccn1` (centres undefined), the Potency is reported as inconclusive: 0.794 µM [inhibitor, full curve, poor fit].
In the case of `Cc1cccc(OCCSc2nc3ncnc(N)c3[nH]2)c1`, the Potency is reported as “inactive”.
In the case of `Cc1ccc(S(=O)(=O)NCC(=O)N/N=C/c2ccccc2O)cc1`, the Potency is reported as inconclusive: 2.24 µM [inhibitor, partial curve, poor fit].
For `COc1ccc2[nH]c3c(N4CCC(O)(c5cccc(C(F)(F)F)c5)CC4)ncnc3c2c1`, the Potency was inconclusive: 4.47 µM [inhibitor, partial curve, poor fit].
In the case of `CCCCC1C(=O)CC[C@H]2[C@@H]1CC(=O)[C@@H]2C/C=C\CCCC(=O)O` (some centres undefined), the activity change, negative = inhibition is reported as inactive: 4.23% [at 11.4 µM].
In the case of `COc1cc(/C=N/NC(=O)c2cncc(Br)c2)cc([N+](=O)[O-])c1O`, the Potency is reported as inconclusive: 3.55 µM [inhibitor, partial curve, poor fit].
For `Cc1ccc(NC(=O)c2ccc(-c3nn(C)c(=O)c4ccccc34)cc2)cc1`, the Potency was inconclusive: 14.1 µM [inhibitor, partial curve].
With `Cc1[nH]n(-c2ccccc2)c(=O)c1C=Nc1cccc2cccnc12` the Potency was inconclusive: 3.16 µM [inhibitor, partial curve, poor fit].
In the case of `CCn1c2ccccc2c2cc(NC(=O)COC(=O)c3cc(S(=O)(=O)N4CCCCC4)ccc3Cl)ccc21`, the activity change, negative = inhibition is reported as inactive: 4.24% [at 11.4 µM].
In the case of `Cc1nnc(-c2ccccc2)c(=O)n1/N=C/c1c(O)ccc2ccccc12`, the Potency is reported as inconclusive: 8.91 µM [inhibitor, partial curve, poor fit].
In the case of `CC[C@]12c3[nH]c4ccc(Cl)cc4c3CCN1C(=O)[C@@H](CC(=O)NCC13CC4CC(CC(C4)C1)C3)C[C@@H]2C(=O)N1CCN(C(=O)c2ccco2)CC1`, the Potency is reported as inconclusive: 3.55 µM [inhibitor, partial curve, poor fit].
For `CC1(C(=O)NCc2cccc(C(F)(F)F)c2)CCN1Cc1ccc(-c2ccccc2)o1` (centres undefined), the Potency was inconclusive: 39.8 µM [inhibitor, single point].
For `COc1ccc(OC)c(/C=C/C(=O)N2C(=O)c3cccc(N)c3C2=O)c1`, the Potency was inconclusive: 22.4 µM [inhibitor, single point].
In the case of `CCCCCCn1c2c(c(=N)c3c1CCC3)CCC2`, the Potency is reported as active: 2.51 µM.
For `CC(C)(C)c1cc(C(=O)N/N=C/c2ccc([N+](=O)[O-])s2)n[nH]1`, the Potency was active: 11.2 µM.
With `CC(=O)c1ccc(N2CCc3ccccc3C2)c([N+](=O)[O-])c1` the Potency was “inactive”.
In the case of `NC(=Nc1nc(-c2ccccn2)cc2ccccc12)c1ccccn1`, the Potency is reported as active: 0.0398 µM.
With `COc1cc(/C=C/C(=O)c2ccc(C)c([N+](=O)[O-])c2)cc(OC)c1O` the Potency was “inactive”.
With `Cc1ccc(NS(=O)(=O)c2cc3c4c(cccc4c2)C(=O)NC3=O)cc1C` the Potency was inconclusive: 3.55 µM [inhibitor, partial curve, poor fit].
For `Cc1ccc(NC(=O)COc2ccc(/C=C3/SC(=Nc4ccccc4)N(Cc4cccnc4)C3=O)cc2)cc1`, the Potency was “inactive”.
With `O=C(c1ccco1)N1CCN(c2ccnc3cc(Cl)ccc23)CC1` the Potency was active: 14.1 µM.
In the case of `N#Cc1ccc(/C=C\c2nccc3c2[nH]c2ccccc23)cc1`, the activity change, negative = inhibition is reported as inactive: -24% [at 11.4 µM].
In the case of `CCOC(=O)c1ccc(NC(=O)c2nc[nH]c2C(=O)N[C@H](C)c2ccccc2)cc1`, the Potency is reported as inconclusive: 3.16 µM [inhibitor, single point].
With `Cc1cc(C)c(S(=O)(=O)/N=C2\C=C(Nc3ccc(C(=O)O)cc3)C(=O)c3ccccc32)c(C)c1` the Potency was active: 1.58 µM.
For `CN1CCC2(CC1)N=C(c1ccc(F)cc1)C(=S)N2C(=O)c1ccc(C(C)(C)C)cc1`, the Potency was inconclusive: 22.4 µM [inhibitor, single point].
In the case of `CCN1CCN(c2ccc(S(=O)(=O)N3CCCCC3)cc2NC(=O)/C=C/c2ccc([N+](=O)[O-])cc2)CC1`, the activity change, negative = inhibition is reported as inactive: -17.9% [at 11.4 µM].
With `Cc1ccc(Nc2c(-c3ccccn3)nc3cc(C)ccn23)cc1` the Potency was inconclusive: 3.55 µM [inhibitor, full curve, poor fit].
For `Cc1cc(C)cc(NC(=O)c2ccc([N+](=O)[O-])o2)c1`, the Potency was inconclusive: 3.16 µM [inhibitor, single point].
In the case of `Cc1nc(-c2ccc(Cl)cc2)sc1C(=O)NN`, the Potency is reported as inconclusive: 14.1 µM [inhibitor, partial curve].
In the case of `CCCCN(C=O)c1c(CC)nc2ccc(C(=O)Nc3cc(-c4ccccc4)ccc3OC)cn12`, the Potency is reported as active: 22.4 µM.
For `COc1ccc(-c2nc(CN3CCN(c4ncnc5ccccc45)CC3)c(C)o2)c(OC)c1`, the Potency was inconclusive: 2 µM [inhibitor, partial curve, poor fit].
For `CN(C)CCNc1ccc2nnn3c4ccc(O)cc4c(=O)c1c23`, the Potency was inconclusive: 2.24 µM [inhibitor, partial curve, poor fit].
For `COc1ccnc(Oc2ccc(F)cc2)c1C(=O)N/C=N/OCc1ccc(Cl)cc1Cl`, the Potency was inconclusive: 39.8 µM [inhibitor, single point].
For `CCOC(=O)N1CCN(C(=O)c2ccc(Cn3c(=S)[nH]c4ccc(Br)cc4c3=O)cc2)CC1`, the Potency was inconclusive: 0.562 µM [inhibitor, full curve, poor fit].
With `C/C(=N\Nc1cc(N2CCOCC2)nc(C)n1)c1cccc([N+](=O)[O-])c1` the activity change, negative = inhibition was inactive: -9.23% [at 11.4 µM].
For `CCc1cc(-c2[nH]ncc2-c2ccc(OC)cc2)c(O)cc1O`, the Potency was inconclusive: 3.55 µM [inhibitor, partial curve, poor fit].
With `O=C(N/N=C/c1ccccc1O)/C(=C/c1ccccc1)CCO` the Potency was inconclusive: 0.708 µM [inhibitor, full curve, poor fit].
